Test results: PMC4336329 (PLoS ONE, 2015)
About 2,200 (0.71%) of roughly 310,000 compounds showed an effect of 50% or more. The effect is printed as a negative number. Some of the results follow.

Biological target: human ether-à-go-go-related gene (hERG) potassium channel (human, UniProt Q12809)
Assay: primary screen, population patch clamp on CHO cells stably expressing hERG

Sequence of human ether-à-go-go-related gene (hERG) potassium channel (Q12809 whole entry, looked up): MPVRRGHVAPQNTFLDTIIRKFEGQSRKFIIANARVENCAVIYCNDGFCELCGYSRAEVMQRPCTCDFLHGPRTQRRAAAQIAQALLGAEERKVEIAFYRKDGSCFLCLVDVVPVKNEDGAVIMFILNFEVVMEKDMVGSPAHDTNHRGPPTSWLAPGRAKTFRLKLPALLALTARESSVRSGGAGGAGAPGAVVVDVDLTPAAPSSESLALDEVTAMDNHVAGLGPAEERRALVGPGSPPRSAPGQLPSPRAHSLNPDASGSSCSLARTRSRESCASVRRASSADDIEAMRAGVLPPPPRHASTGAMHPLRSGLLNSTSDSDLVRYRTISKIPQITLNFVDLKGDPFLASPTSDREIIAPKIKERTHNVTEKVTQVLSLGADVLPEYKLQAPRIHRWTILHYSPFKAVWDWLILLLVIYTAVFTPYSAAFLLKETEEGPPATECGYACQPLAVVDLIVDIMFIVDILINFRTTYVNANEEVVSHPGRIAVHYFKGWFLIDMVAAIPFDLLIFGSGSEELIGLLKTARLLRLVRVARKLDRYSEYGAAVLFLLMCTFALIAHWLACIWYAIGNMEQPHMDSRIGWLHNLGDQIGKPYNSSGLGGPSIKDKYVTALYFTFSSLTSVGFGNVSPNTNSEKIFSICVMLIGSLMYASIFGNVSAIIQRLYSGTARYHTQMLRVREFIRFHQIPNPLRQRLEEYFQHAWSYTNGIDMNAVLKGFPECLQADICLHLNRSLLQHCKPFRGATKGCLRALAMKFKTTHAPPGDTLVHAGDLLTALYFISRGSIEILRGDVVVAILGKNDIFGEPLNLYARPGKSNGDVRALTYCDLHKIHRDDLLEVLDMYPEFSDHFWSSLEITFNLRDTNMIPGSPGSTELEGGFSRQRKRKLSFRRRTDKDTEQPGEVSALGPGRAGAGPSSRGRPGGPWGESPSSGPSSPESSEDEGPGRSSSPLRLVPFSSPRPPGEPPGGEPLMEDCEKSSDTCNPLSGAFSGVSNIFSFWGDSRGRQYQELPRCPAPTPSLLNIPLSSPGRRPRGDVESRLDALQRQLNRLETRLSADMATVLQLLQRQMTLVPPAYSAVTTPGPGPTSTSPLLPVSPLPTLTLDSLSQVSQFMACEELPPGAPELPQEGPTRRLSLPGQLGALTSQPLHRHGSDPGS

Structure (SMILES) | hERG current change (%, negative = inhibition) at 1uM
O=C(OCC(=O)N1CCc2ccccc21)c1nc(Cl)ccc1Cl | 2.65%
O=C(Nn1cnnc1)c1ccc(F)c(S(=O)(=O)N2CCCCC2)c1 | 10.5%
COc1ccc(-c2nc(CN3CCN(C(=O)c4ccco4)CC3)c(C)o2)c(F)c1 | 5.04%
CCOC(=O)c1cc(C(C)=O)n2ccccc12 | 11.3%
O=C(CSCc1ccc([N+](=O)[O-])cc1)Nc1cccc(C(=O)Nc2ccccc2C(=O)O)c1 | 16.3%
COC(=O)c1ccc(=O)n(Cc2ccco2)c1 | -0.924%
CC(=O)Nc1cc(NC(C)=O)cc(C(=O)NC(C)(C)C)c1 | 6.11%
NC(=O)C1CCN(C2OC(=O)c3ccccc32)CC1 (stereo not shown) | -15%
COc1ccccc1/C=C/C(=O)OCC(=O)NC1CCCCCC1 | 10.9%
CCCOc1ccc(C(=O)N2CCN(Cc3ccc4c(c3)OCO4)CC2)cc1 | -46.6%
Cc1c(CC(=O)N[C@@H](C)C(=O)O)c(=O)oc2cc3occ(-c4ccccc4)c3cc12 | 18.2%
COC(=O)C1=C(C)N(c2ccc(OC)cc2)C(C)=C(C(=O)OC)C1c1ccc(OC)cc1 | 14%
CCOC(=O)c1ccc(NC(=S)NC(=O)c2nn(CC)cc2Br)cc1 | 6.28%
O=C(c1cc(Cl)ccc1Cl)N1CCc2ccccc21 | 5.23%
O=C(NC(=S)Nc1ccccc1O)c1cccnc1 | 16%
CCCCSc1nc2sc3c(c2c(=O)n1-c1ccccc1)CCN(C)C3 | 6.7%
COc1ccccc1C(=O)Nc1ccccc1C(=O)NC1CCCCC1 | 6.43%
O=C(c1ccccc1)N1CCN(S(=O)(=O)c2ccccc2)CC1 | 6.24%
COc1cccc(CNC(=O)CCC2CCCN(C(=O)c3ccc(OC)c(F)c3)C2)c1 (stereo not shown) | 9.6%
CCOc1ccc(N2C(=O)CC(n3ccc(C)n3)C2=O)cc1 (stereo not shown) | 17.1%
CCOCCCNc1nc2c(c(=O)n(C)c(=O)n2C)n1CCCc1ccccc1 | 8.56%
CCCCNC(=O)c1onc(CSc2ccccc2CC)c1C(=O)O | 13%
CCN(CC)c1cc2nonc2c2nonc12 | 10.2%
C=CCn1c(=NC(=O)C2CCCCC2)sc2cc(NC(C)=O)ccc21 | 4.03%
Cc1ccc(Cl)c(NC(=O)COC(=O)CNS(=O)(=O)/C=C/c2ccccc2)c1Cl | 16.8%
